# Whole data set: some 2,900 compounds, median “NF-kB SEAP reporter activity, fold change vs agonist alone” near 0.99, cut for the highest 2% near 2.6. The list shows a part of the results.
# Columns and labels:
# [1] = test system: RAW-Dual; experiment: NF-kB SEAP reporter activity, fold change vs agonist alone; cytotoxicity flag (confluency mask): not cytotoxic; higher = enhanced NF-kB activity
# How it was run: (§1)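 Reporter activity is given as fold change relative to agonist-alone wells. To measure it, 50 nL of library stock was pin-tooled onto RAW-Dual macrophages (50,000 cells/well, DMEM, 384-well plates), a PRR agonist followed 1 h later, and cells stayed at 37 °C, 5% CO2. Twenty hours on, supernatant was assayed for IRF (QuantiLuc luminescence) and NF-κB (QuantiBlue, 620 nm absorbance), and wells under 70% of agonist-control IncuCyte confluency in both mask sets were marked cytotoxic.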
# [2] = test system: RAW-Dual; experiment: NF-kB SEAP reporter activity, fold change vs agonist alone; higher = enhanced NF-kB activity; details: library stock concentration (final ~1000-fold dilution): 10 mM
# How it was run: as §1
# [3] = test system: RAW-Dual; experiment: NF-kB SEAP reporter activity, fold change vs agonist alone; cytotoxicity flag (confluency mask): cytotoxic (confluency <70% of control); higher = enhanced NF-kB activity
# How it was run: as §1
# [4] = agonist: ODN 1826 (TLR9) 0.5 ug/mL
# [5] = agonist: Pam2CSK4 (TLR2/6) 0.1 ug/mL
# [6] = agonist: Pam3CSK4 (TLR2/1) 0.1 ug/mL
# [7] = cytotoxicity flag (confluency mask): not cytotoxic, agonist: Imiquimod (TLR7) […]
# [8] = cytotoxicity flag (confluency mask): not cytotoxic, agonist: MPLA (TLR4) […]
smiles,measurement,setting,value
CS(=O)(=O)O.O=C(OC1CC2CC3CC(C1)N2CC3=O)c1c[nH]c2ccccc12 (configuration not stated) (library stock concentration (final ~1000-fold dilution): 10 mM),NF-kB SEAP reporter activity,[1]; agonist: LPS (TLR4) 0.1 ug/mL,0.646
same,NF-kB SEAP reporter activity,[1]; [4],0.571
same,NF-kB SEAP reporter activity,[1]; [5],0.906
same,NF-kB SEAP reporter activity,[1]; [6],0.497
COC1=CC(c2cc3ccccc3[nH]2)=N/C1=C\c1[nH]c(C)cc1C.CS(=O)(=O)O,NF-kB SEAP reporter activity,[2]; [7],1.4
same,NF-kB SEAP reporter activity,[2]; [8],2.78
COC1=CC(c2cc3ccccc3[nH]2)=N/C1=C\c1[nH]c(C)cc1C.CS(=O)(=O)O (library stock concentration (final ~1000-fold dilution): 10 mM),NF-kB SEAP reporter activity,[1]; agonist: LPS (TLR4) 0.1 ug/mL,8.62
same,NF-kB SEAP reporter activity,[1]; [4],1.9
same,NF-kB SEAP reporter activity,[1]; [5],2.55
same,NF-kB SEAP reporter activity,[1]; [6],3.87
O=C(Cc1ccccc1)Nc1nnc(NC2CCN(c3nnc(NC(=O)Cc4ccccc4)s3)CC2)s1 (library stock concentration (final ~1000-fold dilution): 10 mM),NF-kB SEAP reporter activity,[1]; agonist: LPS (TLR4) 0.1 ug/mL,1.41
same,NF-kB SEAP reporter activity,[1]; [4],0.773
same,NF-kB SEAP reporter activity,[1]; [5],0.514
same,NF-kB SEAP reporter activity,[1]; [6],0.64
O=C(Cc1ccccc1)Nc1nnc(NC2CCN(c3nnc(NC(=O)Cc4ccccc4)s3)CC2)s1,NF-kB SEAP reporter activity,[2]; [7],0.998
same,NF-kB SEAP reporter activity,[2]; [8],1.26
OC1(c2ccc(Cl)c(C(F)(F)F)c2)CCN(CCCC(c2ccc(F)cc2)c2ccc(F)cc2)CC1 (library stock concentration (final ~1000-fold dilution): 10 mM),NF-kB SEAP reporter activity,[3]; agonist: LPS (TLR4) 0.1 ug/mL,0.194
same,NF-kB SEAP reporter activity,[3]; [4],0.175
same,NF-kB SEAP reporter activity,[3]; [5],0.101
same,NF-kB SEAP reporter activity,[3]; [6],0.11
OC1(c2ccc(Cl)c(C(F)(F)F)c2)CCN(CCCC(c2ccc(F)cc2)c2ccc(F)cc2)CC1,NF-kB SEAP reporter activity,"[2]; cytotoxicity flag (confluency mask): cytotoxic (confluency <70% of control), agonist: Imiquimod (TLR7) […]",0.266
same,NF-kB SEAP reporter activity,"[2]; cytotoxicity flag (confluency mask): cytotoxic (confluency <70% of control), agonist: MPLA (TLR4) […]",0.266
CN(C(=O)CNC(=O)/C=C/c1cccc(Cl)c1)C1CCS(=O)(=O)CC1 (library stock concentration (final ~1000-fold dilution): 10 mM),NF-kB SEAP reporter activity,[1]; agonist: LPS (TLR4) 0.1 ug/mL,1.01
same,NF-kB SEAP reporter activity,[1]; [4],0.874
same,NF-kB SEAP reporter activity,[1]; [5],0.449
same,NF-kB SEAP reporter activity,[1]; [6],0.519
CN(C(=O)CNC(=O)/C=C/c1cccc(Cl)c1)C1CCS(=O)(=O)CC1,NF-kB SEAP reporter activity,[2]; [7],0.848
same,NF-kB SEAP reporter activity,[2]; [8],0.851
O=C1Nc2ccccc2/C1=C1\Nc2ccccc2C1=O (library stock concentration (final ~1000-fold dilution): 10 mM),NF-kB SEAP reporter activity,[1]; agonist: LPS (TLR4) 0.1 ug/mL,1.12
same,NF-kB SEAP reporter activity,[1]; [4],0.972
same,NF-kB SEAP reporter activity,[1]; [5],0.69
same,NF-kB SEAP reporter activity,[1]; [6],1.02
O=C1Nc2ccccc2/C1=C1\Nc2ccccc2C1=O,NF-kB SEAP reporter activity,[2]; [7],0.933
same,NF-kB SEAP reporter activity,[2]; [8],1.04
O=C1c2c(O)cccc2C(C2OC(CO)C(O)C(O)C2O)c2cc(CO)cc(O)c21 (configuration not stated) (library stock concentration (final ~1000-fold dilution): 10 mM),NF-kB SEAP reporter activity,[1]; agonist: LPS (TLR4) 0.1 ug/mL,0.895
same,NF-kB SEAP reporter activity,[1]; [4],0.989
same,NF-kB SEAP reporter activity,[1]; [5],1.03
same,NF-kB SEAP reporter activity,[1]; [6],1.06
O=C1c2c(O)cccc2C(C2OC(CO)C(O)C(O)C2O)c2cc(CO)cc(O)c21 (configuration not stated),NF-kB SEAP reporter activity,[2]; [7],0.909
same,NF-kB SEAP reporter activity,[2]; [8],0.972
O=c1cc(-c2ccc(O)c(-c3c(O)cc(O)c4c(=O)cc(-c5ccc(O)cc5)oc34)c2)oc2cc(O)cc(O)c12 (library stock concentration (final ~1000-fold dilution): 10 mM),NF-kB SEAP reporter activity,[1]; agonist: LPS (TLR4) 0.1 ug/mL,0.895
same,NF-kB SEAP reporter activity,[1]; [4],1.01
same,NF-kB SEAP reporter activity,[1]; [5],0.932
same,NF-kB SEAP reporter activity,[1]; [6],1.14
O=c1cc(-c2ccc(O)c(-c3c(O)cc(O)c4c(=O)cc(-c5ccc(O)cc5)oc34)c2)oc2cc(O)cc(O)c12,NF-kB SEAP reporter activity,[2]; [7],1.02
same,NF-kB SEAP reporter activity,[2]; [8],1.24
COc1ccccc1S(=O)(=O)Nc1ccc2c(c1)CN(C)C(=O)N2 (library stock concentration (final ~1000-fold dilution): 10 mM),NF-kB SEAP reporter activity,[1]; agonist: LPS (TLR4) 0.1 ug/mL,3.81
same,NF-kB SEAP reporter activity,[1]; [4],2.25
same,NF-kB SEAP reporter activity,[1]; [5],0.457
same,NF-kB SEAP reporter activity,[1]; [6],1.4
COc1ccccc1S(=O)(=O)Nc1ccc2c(c1)CN(C)C(=O)N2,NF-kB SEAP reporter activity,[2]; [7],2.14
same,NF-kB SEAP reporter activity,[2]; [8],2.51

# Reference: the supplement of paper PMC10037445
